The campaign covered roughly 410,000 compounds. About 530 (0.13%) were called active. Inconclusive results, whose numbers are uncertain, are shown with a selection of clear calls. Calls come from the whole dose curve; as a rule, active = well fitted inhibition curve with a large enough effect; inconclusive = small, poorly fitted or top-dose-only effect, or another doubt; inactive = no such curve, though single readings can be large or run the other way. Potencies of inconclusive entries are doubtful fits and often do not repeat.
Assay: qHTS of GLP-1 Receptor Inverse Agonists: Cytotox Screen
Details: HEK293 cAMP-luciferase reporter cells, luminescence, 24 h; activity change, negative = inhibition: at 38.3 µM (top of the series) unless noted
Method in brief: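 MLSMR compounds, 24 hr on cells at 37 deg C/5% CO2; luminescence after luciferase reagent (12 min RT). Inhibition counted as the undesired cytotoxic outcome.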
% is set by controls: 0 for no effect and ±100 for the full control effect; potency is the fitted concentration of half-maximal effect.

Row | Structure (SMILES) | activity change, negative = inhibition | Potency
1 | Clc1ccc(-c2cnc3n2CCC3)cc1 | inactive: 25.1% | 
2 | CC(=O)c1ccc(N2CCN(C(=O)CCS(=O)(=O)c3ccc4c(c3)CCN4C(C)=O)CC2)cc1 | inactive: -2.61% | 
3 | O=C(Cn1ncc(Cl)c(Cl)c1=O)NC1CCCCC1 |  | inconclusive: 10 µM [inhibitor, partial curve]
4 | CCOc1cc(NC(=S)NCC2CCCO2)c(OCC)cc1NC(=O)c1ccccc1F (configuration not stated) |  | inconclusive: 28.2 µM [inhibitor, single point]
5 | Cc1cccc(Nc2nc(-c3ccccc3)c(C(=O)Nc3cccnc3)s2)c1 |  | inconclusive: 28.2 µM [inhibitor, single point]
6 | CCOc1ccc(/C=N/NC(=S)NC2CC3C=CC2C3)cc1 (configuration not stated) | inactive: 7.01% | 
7 | COc1ccc(-c2cccc(-c3cc(=O)oc4cc(OC)cc(OC)c34)c2)cc1 |  | inconclusive: 0.501 µM [inhibitor, full curve, poor fit]
8 | CC(=O)Nc1cccc(C(=O)N/N=C/c2ccc(C)o2)c1 | inactive: 3.2% | 
9 | COc1cccc(NC(=O)COC(=O)c2c3c(nc4ccccc24)CCC(C)C3)c1 (configuration not stated) |  | inconclusive: 6.31 µM [inhibitor, partial curve]
10 | CCCCCCOC(=O)C[N+](C)(C)CCOC1CC2CCC1(C)C2(C)C (configuration not stated) | inactive: 0.122% | 
11 | O=C(c1ccc2c(c1)CCC2)N1CCN(Cc2c(F)cccc2Cl)CC1 | inactive: 1.87% | 
12 | COc1cccc(/C=N/NC(=O)CNC(=O)c2cccs2)c1O |  | inconclusive: 1 µM [inhibitor, full curve, poor fit]
13 | O=C(Cn1c(-c2cscn2)nc2ccccc21)Nc1ccc2ccccc2c1 |  | inconclusive: 6.31 µM [inhibitor, partial curve, poor fit]
14 | O=C(CN(c1ccc(Br)cc1)S(=O)(=O)c1ccc(Cl)c([N+](=O)[O-])c1)NCC1CCCO1 (configuration not stated) |  | inconclusive: 28.2 µM [inhibitor, single point]
15 | CCCCCCn1c(=O)n2n(c1=O)[C@@H]1CN(S(=O)(=O)c3ccc(C)cc3)C[C@]1(O)[C@@H](OC(=O)NCc1ccccc1)C2 | inactive: -17.3% | 
16 | Cc1ccc(NC(=S)NC2CCSc3ccccc32)cc1C (configuration not stated) |  | inconclusive: 28.2 µM [inhibitor, single point]
17 | COc1ccc(Cl)cc1-c1cc(C(=O)Nc2ccc(C)c(NS(C)(=O)=O)c2)[nH]n1 |  | inconclusive: 10 µM [inhibitor, partial curve, poor fit]
18 | CCOc1cc(CNc2ccc(N(C)C)cc2)cc(Br)c1OCC(=O)NC(C)(C)C |  | inconclusive: 15.8 µM [inhibitor, single point]
19 | O=c1c2cc3c(cc2nc2sc(Nc4ccc(F)cc4F)nn12)OCO3 | inactive: -7.71% | 
20 | N#Cc1c(N)[nH]c2ccc(Sc3ccccc3)cc12 |  | inconclusive: 0.316 µM [inhibitor, full curve, poor fit]
21 | O=C1CN(C(=O)c2cc(Br)c(Br)s2)c2ccccc2N1 |  | inconclusive: 6.31 µM [inhibitor, partial curve, poor fit]
22 | CN(C)CCN(C(=O)/C=C/c1cccs1)c1nc2c(F)cc(F)cc2s1 |  | inconclusive: 28.2 µM [inhibitor, single point]
23 | O=C(CCC(=O)N1CCN(c2cccc(Cl)c2)CC1)N1CCN(c2ccccc2)CC1 | inactive: 1.14% | 
24 | CCCCCCCCN1[C@@H](CC(=O)O)c2ccc(C(F)(F)F)cc2S1(=O)=O |  | inconclusive: 0.501 µM [inhibitor, full curve, poor fit]

Row | Structure (SMILES) | activity change, negative = inhibition | Potency
25 | CC(C)N(Cc1ccccc1)C(=O)COC(=O)c1ccccc1SCC(=O)N1CCCC1 |  | inconclusive: 14.1 µM [inhibitor, single point]
26 | Cc1csc(SCC(=O)Nc2ccccc2)n1 | inactive: 6.87% | 
27 | O=C(/C(=C/c1ccc(Cl)cc1)c1nc2ccccc2[nH]1)c1cccs1 |  | inconclusive: 3.55 µM [inhibitor, single point]
28 | Nc1nc2ccc(S(=O)(=O)N3CCCCC3)cc2s1 | inactive: -32% | 
29 | Cc1cc(C)n2[nH]c(=O)c(N=Nc3ccc(S(N)(=O)=O)cc3)c2n1 |  | inconclusive: 28.2 µM [inhibitor, single point]
30 | COc1ccc(NC(=S)NNc2ccc(S(=O)(=O)Nc3ccccc3C(=O)O)cc2[N+](=O)[O-])cc1 |  | inconclusive: 11.2 µM [inhibitor, single point]
31 | COc1ccc(-c2csc(NC(=O)c3ccc(OCC(=O)N4CCOCC4)c(OC)c3)n2)cc1OC |  | inconclusive: 12.6 µM [inhibitor, single point]
32 | CCN1C(=O)[C@H]2[C@@H](c3ccc(-c4ccccc4)c(OC)c3)N[C@@](CC(C)C)(C(=O)OC)[C@H]2C1=O | inactive: 17.8% | 
33 | O=C(NCCc1ccccc1)c1ccc(S(=O)(=O)N2CCCCC2)cc1 | inactive: -5.08% | 
34 | S=C(NCCCc1ccccc1)Nc1ccccc1 |  | inconclusive: 28.2 µM [inhibitor, single point]
35 | O=C(CSc1nnc(COc2ccc(Cl)cc2)o1)N1c2ccccc2CCc2ccccc21 |  | inconclusive: 11.2 µM [inhibitor, single point]
36 | COc1cc(CNC2CCCCCCC2)cc(Br)c1OCC#N |  | inconclusive: 12.6 µM [inhibitor, single point]
37 | O=C(NC(=S)Nc1ncc(Br)cc1Br)c1ccccc1 |  | inconclusive: 28.2 µM [inhibitor, single point]
38 | Cc1cccc(N(CC(=O)NC2CCCC2)C(=O)c2csnn2)c1C | inactive: -4.13% | 
39 | COCCCn1c(-c2ccc(Cl)cc2)n[nH]c1=S | inactive: -6.62% | 
40 | COc1ccc(CCC(=O)NC2CC(=O)N(c3ccc(OC)cc3)C2)cc1 (configuration not stated) | inactive: -0.443% | 
41 | Cn1ccs/c1=N\C(=O)Nc1cccc(Cl)c1 | inactive: 0.282% | 
42 | O=C(CSCc1ccc(F)cc1)N1CCc2c([nH]c3ccccc23)C1c1ccc(Cl)cc1 (configuration not stated) | inactive: -8.58% | 
43 | Cc1c(NS(=O)(=O)c2ccc(Br)cc2)c(=O)n(-c2ccccc2)n1C | inactive: 3.67% | 
44 | COc1ccc(NC(=O)/C(C#N)=C\c2ccc(-c3cc(C(=O)O)ccc3C)o2)cc1 |  | inconclusive: 14.1 µM [inhibitor, single point]
45 | CCc1nc2nc(C)c(NS(=O)(=O)c3ccc(Cl)cc3)c(=O)n2[nH]1 | inactive: -10.3% | 
46 | N=C1C(c2nc3ccccc3s2)=C(O)CN1NC(=O)c1ccc([N+](=O)[O-])cc1 |  | inconclusive: 15.8 µM [inhibitor, single point]
47 | CCOc1ccccc1Nc1nc(N)nc(CN2CCCCC2C)n1 (configuration not stated) |  | inconclusive: 10 µM [inhibitor, single point]
48 | C/C=C\C(=O)Nc1cccc(C2=NOC3(C2)C[C@H](C(N)=O)N(C(=O)/C=C/CC)C3)c1 (some centres not stated) | inactive: 0.342% | 

Row | Structure (SMILES) | activity change, negative = inhibition | Potency
49 | O=c1c2ccccc2nc(/C=C/c2cccnc2)n1CCc1ccccc1 |  | inconclusive: 6.31 µM [inhibitor, partial curve]
50 | Cc1ccc(S(=O)(=O)c2c(N)n(NC(=O)c3ccco3)c3nc4ccccc4nc23)cc1 | inactive: 0.74% | 
51 | COc1ccc(Cl)cc1NC(=S)NNC(=O)C1(C)CC1(Cl)Cl (configuration not stated) |  | inconclusive: 11.2 µM [inhibitor, single point]
52 | COc1ccc(Cl)cc1C(=O)Nn1cnc2ccccc2c1=O |  | inconclusive: 1.41 µM [inhibitor, full curve]
53 | O=[N+]([O-])c1ccc(NC(=S)NCCc2ccc(Cl)cc2)cc1 |  | inconclusive: 28.2 µM [inhibitor, single point]
54 | CCOC(=O)c1oc2cc(OC(C)=O)ccc2c(=O)c1-c1ccc(OC)c(OC)c1 | inactive: -0.406% | 
55 | Cc1nc(N2CCC(C)CC2)c2oc3ccccc3c2n1 |  | inconclusive: 11.2 µM [inhibitor, single point]
56 | COCCCN(C(=S)Nc1cc(Cl)cc(Cl)c1)C(C)c1ccncc1 (configuration not stated) |  | inconclusive: 20 µM [inhibitor, single point]
57 | O=C(CN1CCOCC1)N/N=C/c1ccc(-c2ccc(Br)cc2)o1 |  | inconclusive: 28.2 µM [inhibitor, single point]
58 | Cc1ccc(NC(=O)c2ccccc2Br)c(C(=O)c2ccccc2)c1 | inactive: 0.626% | 
59 | CN(CCO)c1cc(N2CCCCC2)c2nonc2c1[N+](=O)[O-] |  | inconclusive: 10 µM [inhibitor, partial curve]
60 | C/C(=N\NC(=O)CNC(=O)c1ccccc1F)c1ccco1 |  | inconclusive: 2.51 µM [inhibitor, partial curve, poor fit]
61 | O=C(NCCC1CCCCN1S(=O)(=O)c1cccs1)C(=O)NCc1ccccc1 (configuration not stated) |  | inconclusive: 28.2 µM [inhibitor, single point]
62 | Cc1c(C(=O)/C=C/N(C)C)nnn1-c1ccc(Cl)cc1C#N |  | inconclusive: 12.6 µM [inhibitor, single point]
63 | Cc1[nH]c2ccccc2c1C(=O)/C=C/c1ccccc1 |  | inconclusive: 28.2 µM [inhibitor, single point]
64 | O=C(CSc1n[nH]c(-c2ccccc2)n1)Nc1ccc(Br)cn1 | inactive: -18.9% | 
65 | COc1cccc(OCCn2ccnc2)c1 | inactive: 5.14% | 
66 | CCOC(=O)c1ccc(Oc2cc(C)nc(SC)n2)cc1 |  | inconclusive: 6.31 µM [inhibitor, partial curve, poor fit]
67 | Cc1cc(N2CCOCC2)nc2ccc(NC(=S)NC(C)C)cc12 | inactive: -5.03% | 
68 | O=C(Nc1ccc(Br)cc1)c1cc([N+](=O)[O-])cc([N+](=O)[O-])c1 | inactive: -7.73% | 
69 | CCOC(=O)c1cnc(-n2nc(C)cc2C)nc1NC1CCCCC1 |  | active: 1 µM
70 | Cc1nc(-c2ccc(C)c(N3CCN(C(=O)Nc4cccc(Cl)c4C)CC3)c2)no1 | inactive: 0.055% | 
71 | O=C(Nc1ccc(F)cc1)Nc1sccc1-c1nc2ccccc2s1 |  | inconclusive: 2.51 µM [inhibitor, full curve, poor fit]
72 | O=C(c1csc2c1CCCCC2)N1CCN(c2ncccn2)CC1 |  | inconclusive: 0.794 µM [inhibitor, full curve, poor fit]
